Whole data set: some 33,000 sequences, median “E-score (-0.5 to 0.5)” near -0.04, cut for the highest 2% near 0.36. This is one part of the list.
Each sequence was assayed against T1, Hmlalpha2 (UniProt P0CY09) (assay: PBM E-score (8-mer binding enrichment) (E-score (-0.5 to 0.5)); higher = stronger / more preferred TF binding; most listed sequences are background and not binding sites). Conditions: protein concentration: 200 nM; construct: GST-full length.
T1 sequence: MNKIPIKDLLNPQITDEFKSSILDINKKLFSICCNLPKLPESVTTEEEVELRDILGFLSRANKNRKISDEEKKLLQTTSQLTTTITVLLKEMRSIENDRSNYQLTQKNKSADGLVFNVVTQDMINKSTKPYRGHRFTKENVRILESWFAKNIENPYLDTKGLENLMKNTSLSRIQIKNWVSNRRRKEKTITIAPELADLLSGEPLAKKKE
How it was run: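 The E-score, a modified Wilcoxon-Mann-Whitney statistic, was computed by the Universal PBM Analysis Suite for every ungapped eight-base word pooled with its reverse complement. Scans behind it were normalised with masliner after bound GST-tagged yeast transcription factors were detected with fluorescent anti-GST. The proteins, at about 100-200 nM, had been applied to universal all-10-mer Agilent arrays made double-stranded by primer extension.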

Sequence | PBM E-score
AGGGGGAG | -0.384
ACTGAAGA | -0.0546
ATCTGAAT | 0.059
CCCGGCGC | -0.358
CCGTTGCC | -0.229
ATCTGCGG | -0.0808
ACCAATTG | -0.0218
CTCACAGC | -0.15
CACCGAAA | 0.0638
AAATCCTA | 0.0616
ATCCCCAG | -0.255
ACGCCTCC | -0.183
AGAACCGG | -0.107
ACCCGACG | -0.218
CATAGGAG | -0.00675
GCGCCTAA | -0.0972
ACTAACCA | 0.215
AGAGATTA | 0.0004
AGTCCATA | -0.174
AATCTTAC | 0.199
CGGCAGCC | -0.341
ACTCGGCT | -0.252
GATCCGAC | -0.0751
CATGGTGG | -0.00749
CGTATTCC | 0.288

Sequence | PBM E-score
GCAGACCC | -0.322
AAGCACAT | 0.111
CTTTCCAA | -0.0704
AGACGTCA | -0.0886
AACTCGGA | -0.168
CACGAGCC | -0.0745
AAGTTTGA | -0.0014
AGCTTGCA | -0.0594
AGTCTTAC | 0.0662
ACGTCCGA | -0.102
AAGATGTC | 0.0311
AATCGTGT | 0.406
AACGCACG | 0.243
GAATCTGA | -0.03
TCACACAA | 0.23
ACAATTTA | 0.173
GGCAGCAA | -0.0543
AATCCCGG | -0.228
GGCCGGCC | -0.165
ATGCGACA | 0.183
ACACCCTC | -0.155
CTTCTGCA | -0.0586
GCGAACGA | -0.0916
CTCCAGGC | -0.185
CTTGCGGC | -0.273

Sequence | PBM E-score
CCCTATCA | -0.192
ACCTATGA | -0.0629
ACAATTGT | 0.0794
AACCACTC | -0.0151
AGTAACCA | -0.0197
CGAGCGAC | -0.062
AAGCATCT | -0.178
AACTAACA | 0.357
AATATCCG | 0.0481
GTCAGTAA | 0.133
AGAGCTAT | 0.0171
ACCGGAAG | -0.0142
CATCCCTA | -0.0548
CCTACTGC | -0.175
GTCTACAC | 0.364
CGCTCTAG | -0.236
AGGTTCCC | -0.16
CAGGACGA | -0.0247
AAACTGCA | -0.0705
ACGAGAAT | 0.0508
CAGTATTA | 0.149
AATTGACC | 0.0347
CTATCCCC | -0.345
CGCACTAG | -0.0882
AACATCCC | 0.0414

Sequence | PBM E-score
GGGACGCA | -0.237
CAACCTAC | -0.00578
AAGTAGGG | -0.0271
AACTTTTC | 0.117
AACTGGGC | -0.236
AGGGCCGG | -0.355
GTGCAGCA | -0.284
CATGGGCA | -0.149
AATTCACG | 0.076
CCCGTGGC | -0.271
GCCACCTA | -0.151
AATCCAAA | -0.0592
GCAAGTGA | -0.0238
TAGGACAA | 0.0501
AGGTTACA | 0.14
GCTGTTCA | 0.167
GAATACAC | 0.451
ACAGAATA | 0.189
CCGGGGAC | -0.351
GTCTATCA | 0.0262
ACCTCGAA | -0.018
ACAGGAAA | 0.0963
ACATGATA | 0.435
ATTAGCCA | -0.103
ACATTACC | 0.162

Sequence | PBM E-score
ACGTAGCC | 0.00953
ATTTAAGA | 0.0498
AAGGTGTG | -0.0151
GGGCTTAC | -0.0904
CCCCTCAA | -0.16
ACAGGGCT | 0.0949
GTACCCCA | -0.15
CTACGTCC | 0.0361
TCCCAAGA | -0.123
GTAATGCA | 0.257
GTGATGAA | -0.0518
GACCGGCA | -0.203
ACCTACAC | 0.278
GTAACGCA | 0.246
CCAGAGTC | -0.0848
ATTCAGTA | 0.137
ACACGGGT | 0.391
CCAGCTAA | -0.128
ATGTCTTA | 0.173
CGAACGGA | -0.0141
AATAATGT | 0.247
CACATGAC | 0.267
AAAAGCTG | -0.0129
ACAAACAT | 0.305
ATAGTGAA | 0.08

Sequence | PBM E-score
CCCGAGCA | -0.262
CGGACAAC | 0.067
GAGTACAA | 0.227
CATACCCG | -0.117
GACATGGC | 0.224
GGAATCAA | -0.111
ACACGCCC | 0.371
CCAAGTGC | -0.171
GACCCGGA | -0.173
AGAACACG | 0.331
AACGCGTA | 0.359
TGCTGGAA | 0.123
GGCCGAGA | -0.13
ACGCCAAC | 0.0759
ACCTTGCC | -0.128
GTTACTGA | 0.171
CAACACAG | 0.307
GGCGTTGA | 0.00653
CGGTTGAG | 0.00951
GAGTCGCC | -0.317
GGTACTGA | -0.195
ATGTGCGG | 0.0226
ACTATTCC | -0.0557
CGATTTAG | 0.0544
GGCACTAC | -0.121

Sequence | PBM E-score
AAGTCGGT | -0.242
GTTCGTTA | 0.176
GCGCTAAA | -0.0585
CCCTTGGC | -0.35
AAATAGAA | -0.0961
GTCTGGGA | -0.0701
CGAGTAAA | 0.285
GGGTAACC | -0.226
AAATATTC | 0.0676
AGCGGCAC | -0.201
CTAGGCTA | -0.262
AATCGTAT | 0.141
CATGCAGA | 0.191
AGGTGTAG | 0.0925
CGCGTTTC | 0.0651
GATATTAC | 0.268
AGCGGTGC | -0.131
CCAGCCCA | -0.228
CCTGAGGC | -0.223
CAAACGAC | 0.0273
AAAGCGTG | 0.0952
AGGGCGAA | -0.28

Source: the supplement of paper PMC3334620
